# Results: the supplement of paper PMC8728848
# The other results are listed elsewhere or left out.
# B1: GSL-I (Griffonia simplicifolia) (protein)
# chain: FNLPNFWSDVKDNIIFQGDANTTAGTLQLCKTNQYGNPLQYRAGRALYSDPVQLWDNKTGSVASFYTEFTFFLKITGDGPADGLAFFLAPPDSDVKDAGAYLGLFNKSTATQPSKNQVVAVEFDTWKNTDFPEPSYRHIGINVNSIVSVATKRWEDSDIFSGKIATARISYDGSAKILTVVLSYPDGADYILSHSVDLSKNLPNPIRVGISASTGANQFLTVYVLSWRFSSALQSTSVNAAMGPEIIRTVV
# Key:
# Experiment in all cases: glycan array binding signal (z-score within array); higher = stronger binding
# Conditions in all cases: glycan notation: IUPAC condensed, linker removed
# [1] = target: Fuc(a1-2)Gal(b1-4)GlcNAc(b1-3)Gal(b1-4)GlcNAc(b1-2)Man(a1-3)[Fuc(a1-2)Gal(b1-4)GlcNAc(b1-3)Gal(b1-4)GlcNAc(b1-2)Man(a1-6)]Man(b1-4)GlcNAc(b1-4)GlcNAc
# Procedure, shortened: (§1)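 From the Consortium for Functional Glycomics database, 3228 arrays were curated, keeping only those whose protein sequence was available. Binding is given as a within-array Z-score averaged across arrays sharing a protein sequence and across linkers. Negative Z-scores can be read as non-binding.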
# [2] = target: Fuc(a1-2)Gal(b1-4)GlcNAc(b1-3)Gal(b1-4)GlcNAc(b1-3)Gal(b1-4)GlcNAc
# Procedure, shortened: as §1
# [3] = target: Fuc(a1-2)Gal(b1-4)GlcNAc(b1-3)GalNAc
# Procedure, shortened: as §1
# [4] = target: Fuc(a1-2)Gal(b1-4)GlcNAc(b1-3)[Fuc(a1-2)Gal(b1-4)GlcNAc(b1-6)]GalNAc
# Procedure, shortened: as §1
# [5] = target: Fuc(a1-2)Gal(b1-4)GlcNAc(b1-3)[Fuc(a1-3)[Gal(b1-4)]GlcNAc(b1-6)]Gal(b1-4)Glc
# Procedure, shortened: as §1
# [6] = target: Fuc(a1-2)Gal(b1-4)GlcNAc(b1-6)GalNAc
# Procedure, shortened: as §1
# [7] = target: Fuc(a1-2)Gal(b1-4)GlcNAc6S
# Procedure, shortened: as §1
# [8] = target: Fuc(a1-2)Gal(b1-4)[Fuc(a1-3)]GlcNAc
# Procedure, shortened: as §1
# [9] = target: Fuc(a1-2)Gal(b1-4)[Fuc(a1-3)]GlcNAc(b1-2)Man(a1-3)[Fuc(a1-2)Gal(b1-4)[Fuc(a1-3)]GlcNAc(b1-2)Man(a1-6)]Man(b1-4)GlcNAc(b1-4)[Fuc(a1-6)]GlcNAc
# Procedure, shortened: as §1
# [10] = target: Fuc(a1-2)Gal(b1-4)[Fuc(a1-3)]GlcNAc(b1-2)[Fuc(a1-2)Gal(b1-4)[Fuc(a1-3)]GlcNAc(b1-4)]Man(a1-3)[Fuc(a1-2)Gal(b1-4)[Fuc(a1-3)]GlcNAc(b1-2)Man(a1-6)]Man(b1-4)GlcNAc(b1-4)GlcNAc
# Procedure, shortened: as §1
# [11] = target: Fuc(a1-2)Gal(b1-4)[Fuc(a1-3)]GlcNAc(b1-3)Gal(b1-4)[Fuc(a1-3)]GlcNAc
# Procedure, shortened: as §1
# [12] = target: Fuc(a1-2)Gal(b1-4)[Fuc(a1-3)]GlcNAc(b1-3)Gal(b1-4)[Fuc(a1-3)]GlcNAc(b1-3)Gal(b1-4)[Fuc(a1-3)]GlcNAc
# Procedure, shortened: as §1
# [13] = target: Fuc(a1-2)Gal(b1-4)[Fuc(a1-3)]GlcNAc(b1-3)GalNAc
# Procedure, shortened: as §1
# [14] = target: Fuc(a1-2)Gal(b1-4)[Fuc(a1-3)]GlcNAc(b1-3)[Neu5Ac(a2-6)Gal(b1-4)GlcNAc(b1-6)]Gal(b1-4)Glc
# Procedure, shortened: as §1
# [15] = target: Fuc(a1-2)Gal3S(b1-4)GlcNAc
# Procedure, shortened: as §1
# [16] = target: Fuc(a1-2)Gal6S(b1-3)GlcNAc
# Procedure, shortened: as §1
# [17] = target: Fuc(a1-2)Gal6S(b1-3)GlcNAc6S
# Procedure, shortened: as §1
# Fuc(a1-2)Gal6S(b1-4)Glc = target: Fuc(a1-2)Gal6S(b1-4)Glc
# Procedure, shortened: as §1
# [18] = target: Fuc(a1-2)Gal6S(b1-4)Glc6S
# Procedure, shortened: as §1
# Fuc(a1-2)GlcNAc = target: Fuc(a1-2)GlcNAc
# Procedure, shortened: as §1
# Fuc(a1-2)[Gal(a1-3)]Gal = target: Fuc(a1-2)[Gal(a1-3)]Gal
# Procedure, shortened: as §1
# [19] = target: Fuc(a1-2)[Gal(a1-3)]Gal(b1-3)GalNAc
# Procedure, shortened: as §1
# [20] = target: Fuc(a1-2)[Gal(a1-3)]Gal(b1-3)GalNAc(b1-3)Gal(a1-4)Gal(b1-4)Glc
# Procedure, shortened: as §1
# [21] = target: Fuc(a1-2)[Gal(a1-3)]Gal(b1-3)GlcNAc
# Procedure, shortened: as §1
# [22] = target: Fuc(a1-2)[Gal(a1-3)]Gal(b1-3)GlcNAc(b1-2)Man(a1-3)[Fuc(a1-2)[Gal(a1-3)]Gal(b1-3)GlcNAc(b1-2)Man(a1-6)]Man(b1-4)GlcNAc(b1-4)GlcNAc
# Procedure, shortened: as §1
# [23] = target: Fuc(a1-2)[Gal(a1-3)]Gal(b1-3)GlcNAc(b1-2)Man(a1-3)[Fuc(a1-2)[Gal(a1-3)]Gal(b1-3)GlcNAc(b1-2)Man(a1-6)]Man(b1-4)GlcNAc(b1-4)[Fuc(a1-6)]GlcNAc
# Procedure, shortened: as §1
# [24] = target: Fuc(a1-2)[Gal(a1-3)]Gal(b1-3)GlcNAc(b1-3)GalNAc
# Procedure, shortened: as §1
# [25] = target: Fuc(a1-2)[Gal(a1-3)]Gal(b1-3)GlcNAc(b1-6)GalNAc
# Procedure, shortened: as §1
# [26] = target: Fuc(a1-2)[Gal(a1-3)]Gal(b1-4)Glc
# Procedure, shortened: as §1
# [27] = target: Fuc(a1-2)[Gal(a1-3)]Gal(b1-4)GlcNAc
# Procedure, shortened: as §1
binder,measurement,setting,value
B1,glycan array binding signal (z-score),[1],-0.037
same,glycan array binding signal (z-score),[2],-0.239
same,glycan array binding signal (z-score),[3],-0.179
same,glycan array binding signal (z-score),[4],0.044
same,glycan array binding signal (z-score),[5],-0.164
same,glycan array binding signal (z-score),[6],-0.21
same,glycan array binding signal (z-score),[7],-0.157
same,glycan array binding signal (z-score),[8],0.006
same,glycan array binding signal (z-score),[9],-0.155
same,glycan array binding signal (z-score),[10],-0.155
same,glycan array binding signal (z-score),[11],-0.002
same,glycan array binding signal (z-score),[12],0.044
same,glycan array binding signal (z-score),[13],0.177
same,glycan array binding signal (z-score),[14],-0.212
same,glycan array binding signal (z-score),[15],-0.091
same,glycan array binding signal (z-score),[16],-0.291
same,glycan array binding signal (z-score),[17],-0.176
same,glycan array binding signal (z-score),Fuc(a1-2)Gal6S(b1-4)Glc,-0.208
same,glycan array binding signal (z-score),[18],-0.216
same,glycan array binding signal (z-score),Fuc(a1-2)GlcNAc,-0.3
same,glycan array binding signal (z-score),Fuc(a1-2)[Gal(a1-3)]Gal,0.172
same,glycan array binding signal (z-score),[19],-0.076
same,glycan array binding signal (z-score),[20],-0.191
same,glycan array binding signal (z-score),[21],0.063
same,glycan array binding signal (z-score),[22],0.039
same,glycan array binding signal (z-score),[23],-0.181
same,glycan array binding signal (z-score),[24],-0.134
same,glycan array binding signal (z-score),[25],-0.281
same,glycan array binding signal (z-score),[26],-0.099
same,glycan array binding signal (z-score),[27],0.085
